# This is one part of the list.
# B1: PX14379A-bvu-539-28-539 (Bacteroides vulgatus) (protein)
# chain: EPYSEIIEEDYVPTEADEIALLATTYSQLRFVMDWYGLFDLQEESGDVIVTPTRPNGWDDGGTYKQMHKHTWDNQQGQPQSIWDYCYKGIANANKILKRADEGFFTEESKPKVVAEVKGVRALWYSILCDTHGNIPIQTSFSEEVPVQSTRKQVFDFIINELKEVMPNLPTEVNKSTYGRLTQWGAKCLMARMYLNAGVYTGTPMWNECLEQCNDIINSGLFSLETNYTDIFKTENSGCVETIFAIPYDEVYNEGDNNGPVFGAHMKFLSSNSRKVFNMQTTPWGGSAANPQFINSYDPDDMRLKYTWLQGDQYSPDGVLITTFPNKLPSIYKTDTDDGYRVGKYEIKVGAKSLLSNDFPYFRYTEVLLMKAECLLRLGQNETEAAHIVSQIRERAFRESAHPEKATVDAAWLKGDTHINYGTLDEKGQIDDAGNTEVVELGGLYDEWGWEFAAEARRRTDMIRFGTYQKKSWFNHTPTANDLNGNSILFPIHLDHLNTNPNLQQNPGYAGK
# Legend:
# Test in all cases: glycan array binding signal (z-score within array); higher = stronger binding
# Conditions in all cases: glycan notation: IUPAC condensed, linker removed
# [1] = target: Fuc(a1-3)[Gal3S(b1-4)]GlcNAc6S
# In short: (§1)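 Glycan array binding is given as a within-array Z-score, which can be read as non-binding when negative. The arrays, 3228 of them, came from the Consortium for Functional Glycomics database and were retained only where the protein sequence was available. Z-scores were averaged across arrays of the same protein sequence at different concentrations or buffers and across linkers.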
# [2] = target: Fuc(a1-3)[GalNAc(b1-4)]GlcNAc
# In short: as §1
# [3] = target: Fuc(a1-3)[GalNAc(b1-4)]GlcNAc6S
# In short: as §1
# [4] = target: Fuc(a1-4)GlcNAc
# In short: as §1
# [5] = target: Fuc(b1-3)GlcNAc
# In short: as §1
# [6] = target: Gal(a1-2)Gal
# In short: as §1
# [7] = target: Gal(a1-3)Gal
# In short: as §1
# [8] = target: Gal(a1-3)Gal(b1-3)GlcNAc
# In short: as §1
# [9] = target: Gal(a1-3)Gal(b1-3)GlcNAc(b1-2)Man
# In short: as §1
# [10] = target: Gal(a1-3)Gal(b1-3)GlcNAc(b1-2)Man(a1-3)[Gal(a1-3)Gal(b1-3)GlcNAc(b1-2)Man(a1-6)]Man(b1-4)GlcNAc(b1-4)GlcNAc
# In short: as §1
# [11] = target: Gal(a1-3)Gal(b1-3)GlcNAc(b1-3)GalNAc
# In short: as §1
# [12] = target: Gal(a1-3)Gal(b1-3)GlcNAc(b1-6)GalNAc
# In short: as §1
# [13] = target: Gal(a1-3)Gal(b1-3)[Fuc(a1-4)]GlcNAc(b1-2)Man(a1-3)[Gal(a1-3)Gal(b1-3)[Fuc(a1-4)]GlcNAc(b1-2)Man(a1-6)]Man(b1-4)GlcNAc(b1-4)GlcNAc
# In short: as §1
# [14] = target: Gal(a1-3)Gal(b1-4)Glc
# In short: as §1
# [15] = target: Gal(a1-3)Gal(b1-4)GlcNAc
# In short: as §1
# [16] = target: Gal(a1-3)Gal(b1-4)GlcNAc(b1-2)Man
# In short: as §1
# [17] = target: Gal(a1-3)Gal(b1-4)GlcNAc(b1-2)Man(a1-3)[Gal(a1-3)Gal(b1-4)GlcNAc(b1-2)Man(a1-6)]Man(b1-4)GlcNAc(b1-4)GlcNAc
# In short: as §1
# [18] = target: Gal(a1-3)Gal(b1-4)GlcNAc(b1-3)GalNAc
# In short: as §1
# [19] = target: Gal(a1-3)Gal(b1-4)GlcNAc(b1-6)GalNAc
# In short: as §1
# [20] = target: Gal(a1-3)Gal(b1-4)[Fuc(a1-3)]GlcNAc
# In short: as §1
# [21] = target: Gal(a1-3)Gal(b1-4)[Fuc(a1-3)]GlcNAc(b1-2)Man(a1-3)[Gal(a1-3)Gal(b1-4)[Fuc(a1-3)]GlcNAc(b1-2)Man(a1-6)]Man(b1-4)GlcNAc(b1-4)GlcNAc
# In short: as §1
# [22] = target: Gal(a1-3)GalNAc
# In short: as §1
# [23] = target: Gal(a1-3)[Gal(a1-4)]Gal(b1-4)GlcNAc
# In short: as §1
# [24] = target: Gal(a1-4)Gal(b1-3)GlcNAc(b1-2)Man(a1-3)[Gal(a1-4)Gal(b1-3)GlcNAc(b1-2)Man(a1-6)]Man(b1-4)GlcNAc(b1-4)GlcNAc
# In short: as §1
# [25] = target: Gal(a1-4)Gal(b1-4)Glc
# In short: as §1
# [26] = target: Gal(a1-4)Gal(b1-4)GlcNAc
# In short: as §1
# [27] = target: Gal(a1-4)Gal(b1-4)GlcNAc(b1-2)Man(a1-3)[Gal(a1-4)Gal(b1-4)GlcNAc(b1-2)Man(a1-6)]Man(b1-4)GlcNAc(b1-4)GlcNAc
# In short: as §1
# [28] = target: Gal(a1-4)Gal(b1-4)GlcNAc(b1-3)Gal(b1-4)Glc
# In short: as §1
# [29] = target: Gal(a1-4)GlcNAc
# In short: as §1
# [30] = target: Gal(a1-6)Glc
# In short: as §1
# [31] = target: Gal(b1-2)Gal
# In short: as §1
# [32] = target: Gal(b1-3)Gal
# In short: as §1
# [33] = target: Gal(b1-3)Gal(b1-4)GlcNAc
# In short: as §1
# [34] = target: Gal(b1-3)GalNAc
# In short: as §1
# [35] = target: Gal(b1-3)GalNAc(a1-3)[Fuc(a1-2)]Gal(b1-4)Glc
# In short: as §1
# [36] = target: Gal(b1-3)GalNAc(a1-3)[Fuc(a1-2)]Gal(b1-4)GlcNAc
# In short: as §1
# [37] = target: Gal(b1-3)GalNAc(b1-3)Gal
# In short: as §1
binder,measurement,setting,value
B1,glycan array binding signal (z-score),[1],0.033
same,glycan array binding signal (z-score),[2],0.137
same,glycan array binding signal (z-score),[3],-0.37
same,glycan array binding signal (z-score),[4],-0.18
same,glycan array binding signal (z-score),[5],-0.368
same,glycan array binding signal (z-score),[6],-0.24
same,glycan array binding signal (z-score),[7],-0.47
same,glycan array binding signal (z-score),[8],-0.085
same,glycan array binding signal (z-score),[9],-0.28
same,glycan array binding signal (z-score),[10],-0.096
same,glycan array binding signal (z-score),[11],-0.153
same,glycan array binding signal (z-score),[12],0.008
same,glycan array binding signal (z-score),[13],0.484
same,glycan array binding signal (z-score),[14],-0.295
same,glycan array binding signal (z-score),[15],-0.52
same,glycan array binding signal (z-score),[16],-0.201
same,glycan array binding signal (z-score),[17],3
same,glycan array binding signal (z-score),[18],-0.341
same,glycan array binding signal (z-score),[19],-0.502
same,glycan array binding signal (z-score),[20],-0.416
same,glycan array binding signal (z-score),[21],2.63
same,glycan array binding signal (z-score),[22],-0.339
same,glycan array binding signal (z-score),[23],0.784
same,glycan array binding signal (z-score),[24],0.016
same,glycan array binding signal (z-score),[25],-0.512
same,glycan array binding signal (z-score),[26],0.206
same,glycan array binding signal (z-score),[27],0.469
same,glycan array binding signal (z-score),[28],-0.391
same,glycan array binding signal (z-score),[29],-0.226
same,glycan array binding signal (z-score),[30],-0.065
same,glycan array binding signal (z-score),[31],-0.329
same,glycan array binding signal (z-score),[32],-0.377
same,glycan array binding signal (z-score),[33],-0.359
same,glycan array binding signal (z-score),[34],-0.242
same,glycan array binding signal (z-score),[35],-0.048
same,glycan array binding signal (z-score),[36],-0.172
same,glycan array binding signal (z-score),[37],-0.51
